Reference: PubChem BioAssay AID1030 (National Center for Advancing Translational Sciences (NCATS), 2008)
The whole screen tested about 220,000 compounds, of which about 16,000 (7.3%) were called active. Inconclusive results, whose numbers are uncertain, are shown with a selection of clear calls. Calls follow the shape of the dose curve; as a rule, active = well fitted inhibition curve with a large enough effect (not every such curve was filed as active); inconclusive = small, poorly fitted or top-dose-only effect, or another doubt; inactive = no such curve, though single readings can be large or run the other way. No potency is given beside an inconclusive call; the fits are too rough.

These compounds were tested against Aldehyde dehydrogenase 1A1 (Homo sapiens) (UniProt P00352) (assay: qHTS Assay for Inhibitors of Aldehyde Dehydrogenase 1 (ALDH1A1)). Conditions: Purified ALDH1A1, NADH fluorescence, propionaldehyde substrate; series mostly up to 75.3 µM.
Sequence of UniProt P00352 (P00352 whole entry, looked up): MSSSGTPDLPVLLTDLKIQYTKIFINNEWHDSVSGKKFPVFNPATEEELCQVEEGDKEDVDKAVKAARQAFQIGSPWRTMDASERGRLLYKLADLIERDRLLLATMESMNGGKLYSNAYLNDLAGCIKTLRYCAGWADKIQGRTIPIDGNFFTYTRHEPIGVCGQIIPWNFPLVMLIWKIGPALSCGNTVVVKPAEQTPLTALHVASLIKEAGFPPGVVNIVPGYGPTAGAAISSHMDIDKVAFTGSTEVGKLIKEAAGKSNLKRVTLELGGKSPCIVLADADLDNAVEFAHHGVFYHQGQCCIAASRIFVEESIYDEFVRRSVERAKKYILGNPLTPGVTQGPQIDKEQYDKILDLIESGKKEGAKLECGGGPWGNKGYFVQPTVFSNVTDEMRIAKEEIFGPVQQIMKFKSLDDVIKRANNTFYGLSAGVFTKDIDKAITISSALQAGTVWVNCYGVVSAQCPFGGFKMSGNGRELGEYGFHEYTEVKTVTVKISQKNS

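For activity, negative = inhibition in this document: plate controls were no enzyme wells and a reference inhibitor.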
Potency is read from the fitted curve at half-maximal effect; tags tell the direction and shape of the fitted curve.

SMILES	Potency	activity, negative = inhibition
CCCCC(=O)Nc1ccc(NC(=S)NC(=O)CC)cc1OC	inconclusive [inhibitor, single point]	–
Cc1csc(SCC(=O)Nc2nc(-c3ccccc3)cs2)n1	inactive	–
CCOC(=O)c1cc2ccccc2nc1C	inactive	–
COC(=O)Oc1ccc(/C=N/NC(=O)CSCc2ccccc2Br)cc1OC	active: 12.6 µM	–
Cc1ccccc1-n1c(-c2ccoc2C)n[nH]c1=S	inactive	–
CCOC(=O)c1c(C)nc2sc3c(=O)n(-c4ccc(C(C)=O)cc4)cnc3c2c1-c1ccc(OC)cc1	inconclusive [inhibitor, single point]	–
COc1ccc(S(=O)(=O)NCC2CCCN(C(=O)c3ccco3)C2)cc1 (stereo unspecified)	active: 3.98 µM	–
CC(C)(C)c1ccc(S(=O)(=O)N2CCN(CCC#N)CC2)cc1	inconclusive [inhibitor, single point]	–
COc1ccccc1OCC(=O)Nc1ccc2c(c1)C(=O)N(CC1CCCO1)C2=O (stereo unspecified)	active: 4.47 µM	–
CC(=O)N1CCC[C@@]2(CCN(C(=O)Nc3cccc(C#N)c3)C2)C1	inactive	–
Cc1ccc(S(=O)(=O)N[C@@H](CCc2ccccc2)CC(=O)C(C)(C)C)cc1	–	inactive: -17.3% [at 13.5 µM]
O=C1CCCN1Cc1ncnn1-c1ccccc1	inactive	–
COc1ccccc1[C@@H]1C(c2ccc(F)cc2)=NN(c2ccc(Br)cc2)[C@H]1C(=O)N1CCOC1=O	inconclusive [inhibitor, single point]	–
O=C(OCCOc1ccccc1Cl)c1ccc(-n2cnnn2)cc1	inconclusive [inhibitor, single point]	–
COc1cc(OC)c(NS(=O)(=O)c2cc(C(=O)OCC(=O)NCC3CCCO3)ccc2OC)cc1Cl (stereo unspecified)	inconclusive [inhibitor, single point]	–
O=C(Nc1ccccc1)c1ccc(NCC2CCCO2)c([N+](=O)[O-])c1 (stereo unspecified)	inconclusive [inhibitor, single point]	–
O=C(Nc1ccccc1)N1CCCC2(CCN(C(=O)c3cnccn3)CC2)C1	inactive	–
COc1cccc(-c2nnc(SCC(=O)Nc3ccc4c(c3)OCCO4)n2Cc2ccco2)c1	inconclusive [inhibitor, single point]	–
FC(F)Sc1ccc(NC(=S)NCc2ccccc2)cc1	inconclusive [inhibitor, full curve, poor fit]	–
Cc1noc(C)c1S(=O)(=O)N1CCCC(C(=O)NCc2ccccn2)C1 (stereo unspecified)	inactive	–
O=C(Nc1ccccc1)C1=C[C@H](c2csc3ccccc23)C[C@H](OCc2ccc(CO)cc2)O1	inactive	–
C=CCC(Nc1ccco1)c1ccccc1 (stereo unspecified)	active: 22.4 µM	–
Cc1nnc(SCc2nnc(-c3ccccc3)o2)n(N)c1=O	inactive	–
COC(=O)N1CC(c2ccccc2)CC1=O (stereo unspecified)	inactive	–
COc1ccc(N=Cc2ccc(-c3ccccc3)o2)cc1	active: 3.16 µM	–
Cc1ccc(NC(=O)c2cc3ccccc3o2)cc1S(=O)(=O)N(C)C	inconclusive [inhibitor, single point]	–

SMILES	Potency	activity, negative = inhibition
COCCN(C(=S)Nc1ccc(OC)cc1)C1CCN(C(C)=O)CC1	inactive	–
O=C(Cc1cccs1)N/N=C\c1ccc([N+](=O)[O-])s1	active: 12.6 µM	–
O=C(C1=C(O)C(=O)N(CCCN2CCOCC2)C1c1ccccn1)c1cccs1 (stereo unspecified)	inconclusive [inhibitor, single point]	–
CC1(CC(=O)N/N=C/c2ccc(-c3ccc(Cl)cc3)o2)OCCO1	inactive	–
COc1ccc(CNC(=S)NC(C)CCc2ccccc2)cc1 (stereo unspecified)	active: 6.31 µM	–
COc1ccc(-c2nnc3sc(CN4C(=O)c5ccccc5C4=O)nn23)cc1	inconclusive [inhibitor, full curve]	–
Cc1ccc(S(=O)(=O)NNC(=O)C2CCN(S(=O)(=O)c3ccc(C)cc3)CC2)cc1	inconclusive [inhibitor, single point]	–
Cc1ccc(N(CC(=O)N2CCN(C3CCCCC3)CC2)S(=O)(=O)c2cccnc2)cc1	inconclusive [inhibitor, single point]	–
O=C(NCc1ccc2c(c1)OCO2)C(=O)NCC(c1ccco1)N1CCN(c2ccccc2)CC1 (stereo unspecified)	inconclusive [inhibitor, full curve, poor fit]	–
COc1cc(C(=O)Nc2ccc(S(=O)(=O)N3CCCCC3C)cc2)cc(OC)c1OC (stereo unspecified)	inconclusive [inhibitor, single point]	–
COc1ccc(-c2nn(CCC#N)cc2/C=N/O)cc1OC	active: 17.8 µM	–
N#Cc1c(NC2CCCCC2)nc(-c2ccco2)c2c1CCCC2	inconclusive [inhibitor, partial curve]	–
CC1CCCCN1S(=O)(=O)c1ccc(S(=O)(=O)N(Cc2ccccc2)Cc2ccco2)cc1 (stereo unspecified)	active: 7.08 µM	–
O=C(NCc1ccc2c(c1)OCO2)C1CCN(S(=O)(=O)N2CCCCC2)CC1	active: 5.01 µM	–
O=c1c2ccccc2oc2nc(-c3cccs3)n(CCc3ccccc3)c(=O)c12	inactive	–
O=C(Nc1cc(Cl)ccc1Cl)C1CC(=O)N(c2ccc(Br)cc2)C1 (stereo unspecified)	inactive	–
O=C(c1ccc(F)cc1)N1CCC(c2ccccc2)C1 (stereo unspecified)	inactive	–
C[N+]1(C)CC2([N+](=O)[O-])CC=C(Oc3ccccc3)C([N+](=O)[O-])(C2)C1 (stereo unspecified)	inactive	–
CC(C)CC(=O)Nc1nc(=S)ss1	active: 3.55 µM	–
CC(=O)c1cn(C)c(=O)[nH]c1=O	inactive	–
CCOC(=O)CSc1nnnn1-c1cccc2ccccc12	active: 1.78 µM	–
O=C1N/C(=C\c2nc3ccccc3s2)c2ccccc21	inactive	–
Cc1ccc(CNC(=O)C2CCC(=O)N2CCc2ccccc2)cc1 (stereo unspecified)	inconclusive [inhibitor, single point]	–
CC(C)c1ccc(-c2cc(C(=O)N3N=C(C(F)F)CC3(O)C(F)F)c3ccccc3n2)cc1 (stereo unspecified)	inconclusive [inhibitor, single point]	–
COc1cc(/C=N\NC(=O)C2CC3C=CC2C3)ccc1O (stereo unspecified)	inactive	–
